PMC10668032
This is one part of the list. At the low end of the ranking, values are background and their order means little.

Target: SIX1-Q177R homeodomain (UniProt Q15475)
Assay: universal protein binding microarray
Conditions: Universal all-10-mer PBM (8x60K, AMADID 030236), 300 nM GST-tagged protein, Alexa Fluor 488 anti-GST; buffer, salt, pH and temperature not stated; high values mean tight binding; most listed sequences are background and not binding sites; double strand, one strand shown

Sequence	binding signal
AGAGCTAG	-0.115 E-score
CCAAACAG	0.103 E-score
CCATTCGG	-0.00211 E-score
CCATTTTC	-0.282 E-score
CCCAAAAA	-0.0298 E-score
CCGGCGCA	-0.00329 E-score
AAGTGTGG	0.169 E-score
CAGACCAC	-0.0711 E-score
ATCATTAG	-0.0688 E-score
CAGCTTTC	-0.177 E-score
CCCGCCTC	-0.00224 E-score
AGTTATCC	0.139 E-score
CAAGGTGG	0.128 E-score
AAGCAGGA	0.0105 E-score
GCGTTTAA	-0.0771 E-score
CGTTGATA	0.113 E-score
CGGCGAGA	-0.183 E-score
TCACTGCA	-0.0896 E-score
CTAGAGCC	-0.245 E-score
ACTGCACA	0.0701 E-score
CGTAAACC	0.115 E-score
AAGACCAT	-0.308 E-score
GGATGGGA	0.0747 E-score
ACCCGATC	0.253 E-score
ACAGACTA	-0.251 E-score

Sequence	binding signal
CCGACGCG	0.152 E-score
CAGCCGTA	0.0129 E-score
CTTAATAC	0.0914 E-score
ACCATTAG	0.138 E-score
ATCTTGGG	0.0195 E-score
AAGGGTCT	-0.209 E-score
GGGGGCGA	0.0949 E-score
AATAGCTA	-0.173 E-score
GTAGAGAA	-0.0335 E-score
TAATTGAA	-0.109 E-score
AATGTAAC	-0.0605 E-score
TATATCGA	-0.0963 E-score
GCACAAGC	0.0534 E-score
ATCATTTG	-0.0912 E-score
GCCTCATA	-0.332 E-score
GGACACAC	0.382 E-score
CGGCGCGC	-0.024 E-score
AGATGCAA	-0.124 E-score
GAAAGATA	-0.0527 E-score
AGATTTAC	0.0262 E-score
AATCAGGG	0.11 E-score
TGCTGAAA	0.0355 E-score
AAGGCATG	-0.184 E-score
GCTGGGGA	-0.0864 E-score
GCTTACGA	-0.148 E-score

Sequence	binding signal
TCCATTCA	-0.0755 E-score
GAATTACC	-0.0299 E-score
ACACTCAT	0.388 E-score
AACGTCCC	0.0168 E-score
CTGTATAA	-0.111 E-score
CGGCCCTA	-0.164 E-score
GACTAATC	-0.0535 E-score
CAGCGACG	-0.0388 E-score
ATTTTCAA	-0.156 E-score
CGCACGGA	0.0155 E-score
TAGAGCGA	-0.112 E-score
ACACGTGC	0.383 E-score
ATCCCTAA	-0.0953 E-score
CCATGCGC	-0.162 E-score
ATCGCGCA	-0.0917 E-score
CGCTGCCA	-0.196 E-score
ATCGGTCG	-0.148 E-score
AGGACAAT	-0.0174 E-score
CAAAATCC	0.075 E-score
AGCATAAT	-0.122 E-score
CAGGTAGG	0.0913 E-score
GCTGCTCA	-0.139 E-score
CTCTTAAC	-0.0233 E-score
CTGAGATC	-0.119 E-score
GGGGCATA	0.00299 E-score

Sequence	binding signal
AACTCGAA	-0.174 E-score
GCTATGGA	-0.0524 E-score
CTAAATAC	-0.114 E-score
GCAAGACC	-0.0777 E-score
ATGGTATC	0.334 E-score
GAACAGGC	-0.0699 E-score
TGCCAAAA	-0.101 E-score
AGGCATGG	-0.103 E-score
GAAAGTTA	-0.0553 E-score
ATTGCGTA	-0.09 E-score
GGATCTGA	0.194 E-score
GCTGACGA	-0.276 E-score
CTACCTGA	-0.0091 E-score
ATGCCTCA	-0.104 E-score
GGTGCCCA	0.0265 E-score
GGAGCTAA	-0.0861 E-score
GTGTGAGA	0.291 E-score
ACCGTCTC	0.0739 E-score
GATAGCAA	-0.122 E-score
CATCCTTC	-0.117 E-score
GAGCGTGA	-0.103 E-score
AGGTGTGC	0.322 E-score
AATCAATT	-0.0901 E-score
GGTTCACA	0.18 E-score
ATGCTGCC	-0.158 E-score

Sequence	binding signal
AAACAACC	-0.234 E-score
GGGTTCCA	0.106 E-score
TTCCCAAA	-0.0477 E-score
AATGCCAT	-0.3 E-score
AGGGCTTG	-0.155 E-score
CGGTTCTA	-0.176 E-score
CAAGCACA	0.0903 E-score
AAATGATC	-0.176 E-score
CGCAGGCA	0.0169 E-score
TGAATACA	-0.0283 E-score
GGACGTGA	-0.164 E-score
CAGAAAGC	-0.266 E-score
ATACAGTA	0.148 E-score
AAGTAAGA	-0.193 E-score
CGCCGACC	0.057 E-score
AGTTCATC	-0.0814 E-score
AATTAAGG	-0.0173 E-score
AACGCGGC	0.0656 E-score
ATCATAGA	-0.0945 E-score
CATGGACC	-0.0734 E-score
GAACCGTC	-0.341 E-score
CCCGCGTA	0.154 E-score
GGAACTAA	-0.118 E-score
GCACCCCC	0.311 E-score
ACCTTCTG	0.0534 E-score

Sequence	binding signal
TGCTCGAA	-0.136 E-score
AGCCCTCA	-0.175 E-score
CACAAAGG	0.0813 E-score
CCGCCTTA	0.0759 E-score
AGCGCAAT	-0.0836 E-score
GCATTGTA	-0.0533 E-score
ACGCGTTC	-0.0207 E-score
ACTCTTTA	-0.0307 E-score
CAATTCTG	-0.115 E-score
GCGGAAAA	-0.168 E-score
CGATATGC	-0.0535 E-score
GCGCCTGA	-0.207 E-score
CCGTGCTC	0.226 E-score
CGTTCTTA	-0.181 E-score
CGCGGCAC	0.0937 E-score
ACTTGTTC	0.051 E-score
GGTACGAA	-0.00792 E-score
ACTCTCAG	-0.0985 E-score
ATCTTTCG	-0.243 E-score
ACGGCGAT	0.119 E-score
ACAAAGGT	-0.00545 E-score
AACGCCTC	-0.0265 E-score
CCTTCTCC	-0.132 E-score
GTCAAGCA	0.0299 E-score
CATGTTGG	-0.143 E-score

Sequence	binding signal
AACCTTTG	-0.197 E-score
CAGCATGA	-0.0327 E-score
CGATGGCG	-0.14 E-score
CCCGCCTA	0.115 E-score
GCCGATTA	-0.0279 E-score
GCCCTCAC	0.00021 E-score
CTTCCGGC	-0.0371 E-score
CACAGTGC	0.083 E-score
CCGGGCCG	0.0575 E-score
CGAATTCG	-0.134 E-score
ATATCTAA	-0.24 E-score
TCATATAA	-0.0684 E-score
ACTCGGAG	0.133 E-score
AAGTAACG	-0.0723 E-score
CGAAGGAG	-0.0784 E-score
ATTAAGCG	-0.0725 E-score
ACGCGAAC	0.0156 E-score
ACTAACTG	-0.00822 E-score
TGTGGTAA	0.0139 E-score
GACGTCAA	-0.181 E-score
ACGCCCTA	0.0842 E-score
TGCGGCAA	-0.189 E-score
